Measured values as given in the supplement of paper PMC11417369.
Some of the results follow.

test system: PfSIP2 AP2 domain 1 (GST-tagged); assay: gcPBM binding intensity (ln(normalized median fluorescence intensity)); higher = stronger DNA binding
Method in brief: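 In this array assay, P. falciparum DNA-binding domains with a GST tag, expressed in E. coli, were applied for 1 h to primer-extended double-stranded 36-bp intergenic genomic probes and negative controls on an Agilent 4 × 180k array. Bound protein was visualised with Alexa488 anti-GST antibody at 488 nm. Binding intensity is the highest Masliner-normalised natural-log median intensity across replicate spots of either probe orientation.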

Going from “CATATACACGAACACACACACATATAAATAAATATA [CACACA_site6379]” to “GGAATATTAAAAAAATGTACAAAAAATAATATCCAT [XGTACX_site2596]”, the “gcPBM binding intensity (ln)” value falls from 7.32 to 6.99.

First: TATAATGTTAAATAATGTACATATATTTTTTTTTTT [XGTACX_site4722]
Second: TATATATATTAAAAAGTGCATTATTCATATTATATA [GTGCAC_site9400]
The “gcPBM binding intensity (ln)” value of the first is lower: 6.98 for the first, 9.15 for the second.

First: TTACAATTTAATATATGTACATATTTGTGATTTATC [XGTACX_site2911]
Second: TTTATTAATAATTATACACACATATAAAATGAATAA [CACACA_site1359]
The “gcPBM binding intensity (ln)” value of the first is lower: 6.93 for the first, 7.01 for the second.

First: AAAATATCTTGTTACTGTACAAATATAAATAAATAC [XGTACX_site3684]
Second: ATATATACGTATGAATGTATATTTGTTTGAATTTTT [CACACA_negctrl_site524]
The “gcPBM binding intensity (ln)” value of the first is higher: 7.11 for the first, 6.83 for the second.

First: TTTATATATTAATATGCACACACAAGAAGTAATTAT [CACACA_site9045]
Second: AATAATAACATACAGACACACACGTAAAAGCACGTG [CACACA_site253]
The “gcPBM binding intensity (ln)” value of the first is higher: 8.15 for the first, 6.86 for the second.

Compared with “AATGGGTAAACATACACACACACATATATATATATA [CACACA_site1991]”, “TTTTTTTTTGAAAAAAGTACTTAATTTTTAAGAAGA [XGTACX_site3591]” is lower in “gcPBM binding intensity (ln)” value: 9.49 for the first, 6.97 for the second.

Going from “TCTAATAATAAATACACACACATATATATTTATATA [CACACA_site5169]” to “GTCAACAAGAATTAAGTGCATAATTTTTTATTAAAT [GTGCAC_site9492]”, the “gcPBM binding intensity (ln)” value rises from 6.93 to 8.61.

Going from “AGTAATAATCGGCATGCATGTCAGTGGTAGTATATA [TGCATGCA_site312]” to “ATGTCAAGAACTGAACGTACAAACTTTGTAATATTG [XGTACX_site8754]”, the “gcPBM binding intensity (ln)” value rises from 7.08 to 7.16.

First: ATACAGATAGGATGCACACATAATTCAAATACAATA [CACACA_site4531]
Second: ATATAATAATAATATTGTACAATAAAAAATATATAT [XGTACX_site7350]
The “gcPBM binding intensity (ln)” value of the first is higher: 7.62 for the first, 7.21 for the second.

First: AAATTTTATGTATAATGTACACATAAATTTTTCTTT [XGTACX_site7266]
Second: TTAAGTAGTACATACACACACATATACAAAAAGAAA [CACACA_site3972]
The “gcPBM binding intensity (ln)” value of the first is lower: 7.06 for the first, 7.3 for the second.

Going from “TACTTTTTTCCTATTATGTTTCTTATTTTTATAAAT [XGTACX_negctrl_site561]” to “TATTATTTTTCATATGCATGCAAAAATAAAAAAATA [TGCATGCA_site350]”, the “gcPBM binding intensity (ln)” value falls from 7.47 to 7.05.

Compared with “TATAAAAAAAAAAAAAAAAAAAAAAATATATATATA [CACACA_negctrl_site817]”, “ATGAAAAAAAAAAAAAAAAAAAAAAAAAAAAAAATA [CACACA_negctrl_site1083]” is lower in “gcPBM binding intensity (ln)” value: 8.89 for the first, 6.83 for the second.

Compared with “ATTTTTTTGTATATATATGACTGGGGATATAATCAA [GTGCAC_negctrl_site274]”, “AAAAAAAAAAAAAATTGTACTTAAATATATATATAT [XGTACX_site7604]” is higher in “gcPBM binding intensity (ln)” value: 7.04 for the first, 9.07 for the second.

First: AAATTAAAATAAAATAGTACATATATTTATATTTTT [XGTACX_site1687]
Second: ACATACATATATTTATGTACATATATATTTATGATT [XGTACX_site6485]
The “gcPBM binding intensity (ln)” value of the first is lower: 6.79 for the first, 7.11 for the second.

Going from “TTTTGGTGTATAGTATTAATATAAAATAATTATATT [CACACA_negctrl_site47]” to “AAAAAAAGATTATACACACACATATATAAACATACA [CACACA_site4553]”, the “gcPBM binding intensity (ln)” value falls from 7.15 to 7.1.

Going from “AATTTATATTTATGTGCATGTAATAACTGTATATAA [TGCATGCA_site349]” to “TTAGCTTATCATTACTGTACTTTATTCATATATATG [XGTACX_site8008]”, the “gcPBM binding intensity (ln)” value falls from 7.55 to 7.02.

First: TAAACATTCTTATATAGTACCCATATTAAAATATAC [XGTACX_site8014]
Second: ATTTTTTTTTCTTGTACACACTATTTTATAATTTTA [CACACA_site6102]
The “gcPBM binding intensity (ln)” value of the first is lower: 6.93 for the first, 7.38 for the second.

Compared with “TACATATATATATATGAACACACAAAAAGAATATTT [CACACA_site8421]”, “ATAAGCATACATATTACACACATATAATATATATAT [CACACA_site2487]” is higher in “gcPBM binding intensity (ln)” value: 7.21 for the first, 8.7 for the second.

Compared with “TCTTACTAATTTATGGGGACTTATCACCTATTCAGT [CACACA_negctrl_site652]”, “AGTGGATAAATTTATTCACACATTTTTTTTTTTTTT [CACACA_site5914]” is higher in “gcPBM binding intensity (ln)” value: 6.81 for the first, 6.97 for the second.

First: TTTTATGAGAAACACACACACAAAAAAAAAAAAAAA [CACACA_site4129]
Second: CATGAATCCTAATAATGTACATAAGAATTCATAATG [XGTACX_site1607]
The “gcPBM binding intensity (ln)” value of the first is higher: 7.12 for the first, 6.84 for the second.

Going from “TCAATAATAAAAAACACACACAAAAAAAAATAATTA [CACACA_site2798]” to “AACAAAGTCATACATACATACATATATATATATATA [GTGCAC_negctrl_site632]”, the “gcPBM binding intensity (ln)” value rises from 6.8 to 9.34.

First: TATATTATTTATAGTAGTACATAAAATATAAATATT [XGTACX_site4417]
Second: AAAAAAAAAAAAAAAACACACATACACATATATTTT [CACACA_site7768]
The “gcPBM binding intensity (ln)” value of the first is lower: 6.98 for the first, 7.83 for the second.

First: TATTGTATTTCATATTGTACTAAAAAAAAAAAAAAG [XGTACX_site6694]
Second: ATAATACATACATACATACACACATATATATATATT [CACACA_site3576]
The “gcPBM binding intensity (ln)” value of the first is lower: 7.09 for the first, 7.46 for the second.

First: TAAAAAAAAAAAAAAACACACATATAAATATTTATA [CACACA_site6702]
Second: TGAATAAAGAAACACACACACATATATATATATGTA [CACACA_site17]
The “gcPBM binding intensity (ln)” value of the first is lower: 6.86 for the first, 7.01 for the second.

Going from “TATTAATAATTTTCATGTACATATGTATTTGTAATA [XGTACX_site858]” to “ATATAATAAATGTCATGTACATACAACATTTTAACT [XGTACX_site7517]”, the “gcPBM binding intensity (ln)” value rises from 6.97 to 7.08.

First: TTTTTAATTTACTGTCATAGGTACCTTAACTTATCA [CACACA_negctrl_site1664]
Second: TACTTATGTTCGCACACATGCAAATTAAAAAAAAAA [TGCATGCA_site1023]
The “gcPBM binding intensity (ln)” value of the first is lower: 6.85 for the first, 7.71 for the second.

Compared with “TACATATACATATTGTGTACATAATAATTATTTATA [XGTACX_site7884]”, “TTAATTAAGAAACACACACACATATATATATATATT [CACACA_site2290]” is lower in “gcPBM binding intensity (ln)” value: 7.58 for the first, 7.18 for the second.

Going from “TCTCTTTTTCGTTCATGTACAAATAAATAAAAATAT [XGTACX_site6558]” to “GTATATTTTATTTTATGTACATATTCATTTTTTATT [XGTACX_site561]”, the “gcPBM binding intensity (ln)” value rises from 7.35 to 7.68.

Compared with “TTATATATATGACTTTGTACATATACATATTTTTTA [XGTACX_site4669]”, “TATTATATATATGCACGTACAAAAATAATAAAGGTA [XGTACX_site3506]” is higher in “gcPBM binding intensity (ln)” value: 6.7 for the first, 7.71 for the second.

Compared with “ATTTTTTTACTGGATCCATATTTGCTTTTTTATTTA [CACACA_negctrl_site1108]”, “GTGGATATATGTATATGTACATATGTATGTATATAT [XGTACX_site2412]” is higher in “gcPBM binding intensity (ln)” value: 6.83 for the first, 7.44 for the second.

Compared with “TTTAAAATTTAATTTTGTACATATACCAATTTTATT [XGTACX_site448]”, “AATTAGCATAAATGGGTGCTACACAAAAATGCATGT [GTGCAC_site9640]” is higher in “gcPBM binding intensity (ln)” value: 6.85 for the first, 9.7 for the second.

Compared with “ATATAAATATGAAAAAGTACAAGCCATCAAGAAATC [XGTACX_site8140]”, “AATTTTTTATTCTTTGCATGTCATCATATATAATAT [TGCATGCA_site549]” is higher in “gcPBM binding intensity (ln)” value: 7.19 for the first, 7.31 for the second.

Going from “ATATAATGTTAGGGTAGAGGAAGTAACTAATATAAA [CACACA_negctrl_site1153]” to “ATATAATATATGTTATGTACATAGTTTTTATTGTTC [XGTACX_site7438]”, the “gcPBM binding intensity (ln)” value rises from 6.99 to 7.02.

Going from “AATATATAATCAGATGAATTTTTTTTTTTTTTTTCA [CACACA_negctrl_site534]” to “TATAAATATTATAATTGTACATATTATAAAAATTTT [XGTACX_site2719]”, the “gcPBM binding intensity (ln)” value rises from 6.53 to 6.98.

Compared with “AGCAACTAAAAAGGATACCCCATTAAAAAAAAATTA [XGTACX_negctrl_site489]”, “TGTGTATAAAAAAAGTGTACACAAAGTAAGACTTTA [XGTACX_site3759]” is higher in “gcPBM binding intensity (ln)” value: 6.62 for the first, 7.57 for the second.

Compared with “TACCAAAAAACGGCACGCATATGTATAAGAATATGT [XGTACX_negctrl_site470]”, “AAATATATAAAAGTATGTACATATGAAAAATATATA [XGTACX_site6165]” is higher in “gcPBM binding intensity (ln)” value: 7.07 for the first, 7.22 for the second.

Compared with “TTATATAACATAACGATGTTTCAAAACATATTGTAT [CACACA_negctrl_site997]”, “TTATAAAGAATTAGGAGTACAAATGCATATATAATA [XGTACX_site6580]” is higher in “gcPBM binding intensity (ln)” value: 6.94 for the first, 7.3 for the second.

Compared with “TCTTACACTAATAAATGTACATACAAAAAATCTATT [XGTACX_site1379]”, “TACCCACTAAAATACACACACACACCCACATATATA [CACACA_site6141]” is lower in “gcPBM binding intensity (ln)” value: 7.21 for the first, 7.17 for the second.

Compared with “AATTTGAATATTTGATGTACAAAGTTTTTTAATGTT [XGTACX_site3249]”, “GAGAGGATAGTTCACAGTACCCAGTAACTCTACGGA [XGTACX_site4876]” is lower in “gcPBM binding intensity (ln)” value: 6.94 for the first, 6.61 for the second.

Going from “GTACCAACAGCACTACTTCTCGCCATTTTCTTGTAG [XGTACX_negctrl_site97]” to “AAATGTATAATTTTTTAATACACTTATTTAAAATAA [CACACA_negctrl_site797]”, the “gcPBM binding intensity (ln)” value falls from 7.28 to 6.86.

Going from “ATAAATATAACATATTGTACCCTTAAAAAGGAACAA [XGTACX_site352]” to “CTCAAATAACTTTTTACACACATTATTTGAAATAAG [CACACA_site6722]”, the “gcPBM binding intensity (ln)” value rises from 6.86 to 7.19.

Going from “ATATGAATGATCGTACGTACTTACATATTTATAAAG [XGTACX_site8041]” to “CAGAATACATACATTACACACAAATTTAAGTATATA [CACACA_site1781]”, the “gcPBM binding intensity (ln)” value falls from 7 to 6.95.

Going from “TATGAGAACAAACATTGTACAATAAAAAGTAGATAT [XGTACX_site920]” to “ACAAATAAAAAAATTACACACATATAAAATATAGAT [CACACA_site6756]”, the “gcPBM binding intensity (ln)” value falls from 7.28 to 6.78.

With “AGGAAAATAATTAAAGCATGCTCATTATGAAATATA [TGCATGCA_site855]” the “gcPBM binding intensity (ln)” value was 6.79.
